Assay results published in the supplement of paper PMC10126150.
Sequences with one replicate were seen in a single cluster, so their values are uncertain.

tested on: ATP; experiment: switch fluorescence ratio, 500 uM ATP over buffer (Cy3 cluster intensity, sum of 5 cycles each) (fold (ratio)); higher = stronger signal-on switching upon ATP binding; sequences stand for … in TCGTCGGCAGCGTCAGATGTGTATAAGAGACAGTTTTTTTTTTTTTTTTTTTTTTTTT…TC; conditions: aptamer strand: ATP DNA aptamer (quencher-CACCTGGGGGAGTATTGCGGAGGAAGG + anchor), 100 nM annealed; ATP concentration: 500 uM; one replicate
How it was run: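 The quencher-labelled ATP aptamer, at 100 nM, was annealed to Cy3-labelled switching-strand clusters on a modified Illumina MiSeq flow-cell. The clusters were imaged in selection buffer, then after 15 min with 500 uM ATP at 22 °C, and this buffer/ATP cycle ran five times with NaOH stripping and re-annealing between runs. Per-cluster fluorescence ratios, summed target-cycle over summed buffer-cycle Cy3 intensity, were averaged per switch-domain sequence. Clusters outside 100-1000 RFU were excluded.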
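Note: ATP exposure 15 min at 22 °C before imaging.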

Row | Sequence | switch fluorescence ratio
1 | ATTAAATTGA | 1.01
2 | ATTAACATTT | 1.01
3 | ATTAACTGAG | 1.04
4 | ATTAAGCG | 1.03
5 | ATTAAGGATA | 1.01
6 | ATTAAGTACT | 1.24
7 | ATTAATCTCG | 0.956
8 | ATTAATGGCT | 1.08
9 | ATTAATGGGG | 0.959
10 | ATTAATTGCT | 0.988
11 | ATTACAATTG | 1.01
12 | ATTACAGAAA | 1.07
13 | ATTACAGCTC | 1.06
14 | ATTACATGGG | 1
15 | ATTACATGGT | 0.996
16 | ATTACCCTTG | 1
17 | ATTACGATTC | 1.02
18 | ATTACTAGGG | 1.05
19 | ATTAGAAGTT | 0.984
20 | ATTAGAATTG | 0.998
21 | ATTAGACGAA | 1.01
22 | ATTAGATCTA | 0.98
23 | ATTAGCGACC | 1.13
24 | ATTAGCGTGC | 0.96
25 | ATTAGCTTAC | 2.22
26 | ATTAGTAGCC | 0.999

Row | Sequence | switch fluorescence ratio
27 | ATTAGTCGAG | 0.994
28 | ATTAGTGTGT | 0.975
29 | ATTAGTTCTT | 1
30 | ATTATAAAGT | 1.01
31 | ATTATAATTT | 0.976
32 | ATTATATCTG | 0.953
33 | ATTATCCACT | 0.971
34 | ATTATCTC | 0.962
35 | ATTATGCGCT | 0.987
36 | ATTATTCTGT | 0.947
37 | ATTATTCTT | 1.01
38 | ATTCAAATTA | 1.05
39 | ATTCAAGATT | 0.991
40 | ATTCAATGG | 1.05
41 | ATTCACTGCT | 1.06
42 | ATTCAGCACC | 1.04
43 | ATTCAGGCTC | 0.993
44 | ATTCAGTTTT | 0.978
45 | ATTCATCTCG | 0.999
46 | ATTCATTGAC | 1.02
47 | ATTCCCTAAG | 1.04
48 | ATTCCCTAGT | 1
49 | ATTCCCTATG | 1.06
50 | ATTCCGCCGT | 1.14
51 | ATTCCGGTCG | 1.04
52 | ATTCGCAT | 1.47

Row | Sequence | switch fluorescence ratio
53 | ATTCGCATGG | 1.32
54 | ATTCGCCTCA | 0.988
55 | ATTCGCTAAC | 4.36
56 | ATTCGGAGGA | 0.974
57 | ATTCGGAGTA | 0.998
58 | ATTCGGGTAT | 0.984
59 | ATTCGTAGAC | 1.09
60 | ATTCGTGAAA | 0.993
61 | ATTCGTGCG | 0.992
62 | ATTCGTGGCG | 0.871
63 | ATTCTAAACT | 1.03
64 | ATTCTACAAC | 0.968
65 | ATTCTAGGAG | 0.992
66 | ATTCTCGATG | 0.985
67 | ATTCTCTCGA | 1.03
68 | ATTCTGAG | 1.01
69 | ATTCTGTGAG | 0.997
70 | ATTCTTATCA | 0.949
71 | ATTCTTGCAC | 1.03
72 | ATTCTTTAGG | 1.02
73 | ATTGAAATGC | 1.1
74 | ATTGAAATT | 1.02
75 | ATTGAAGCTA | 1.01
76 | ATTGACGCAC | 1.93
77 | ATTGACTCAA | 0.965
78 | ATTGACTGGG | 0.958

Row | Sequence | switch fluorescence ratio
79 | ATTGAGATAC | 1.04
80 | ATTGAGCATG | 0.992
81 | ATTGAGTACG | 0.928
82 | ATTGAGTATT | 0.99
83 | ATTGAGTGGA | 1.06
84 | ATTGATAACG | 1.04
85 | ATTGATTAAT | 0.989
86 | ATTGATTGGC | 1.03
87 | ATTGCACATC | 1.11
88 | ATTGCAGTTA | 1.01
89 | ATTGCCTCAG | 0.991
90 | ATTGCTGCGT | 0.973
91 | ATTGCTTAC | 2.08
92 | ATTGCTTTAC | 1.2
93 | ATTGGAAATA | 1.01
94 | ATTGGAGAGT | 0.964
95 | ATTGGAGGGA | 0.958
96 | ATTGGAGTTG | 0.924
97 | ATTGGATACA | 1.02
98 | ATTGGATATG | 0.983
99 | ATTGGATCGT | 0.984
100 | ATTGGCCGCA | 1.13
101 | ATTGGCGCAA | 1.62
102 | ATTGGCGTCA | 0.979
103 | ATTGGGATC | 1.06
104 | ATTGGGCTCG | 0.991

Row | Sequence | switch fluorescence ratio
105 | ATTGGGG | 0.981
106 | ATTGGGGTCC | 0.975
107 | ATTGGGTCAA | 1.04
108 | ATTGGTAAAA | 1.02
109 | ATTGGTTATT | 0.959
110 | ATTGTAAAGG | 0.969
111 | ATTGTAGCTC | 1.06
112 | ATTGTATGTT | 0.987
113 | ATTGTCAATC | 1.05
114 | ATTGTCAGAT | 0.964
115 | ATTGTCAGCA | 1
116 | ATTGTCATTG | 1.03
117 | ATTGTGAAG | 1
118 | ATTGTTCGCT | 0.985
119 | ATTGTTTACG | 0.987
120 | ATTTAAAAGG | 1.07
121 | ATTTAAGGTT | 0.982
122 | ATTTACGATT | 1.14
123 | ATTTACTGCT | 1
124 | ATTTACTTAT | 1.14
125 | ATTTATGAGT | 1
126 | ATTTATGTA | 1.01
127 | ATTTATTGCA | 0.957
128 | ATTTCACGTT | 0.994
129 | ATTTCAGGCA | 0.961
130 | ATTTCATTGT | 0.972

Row | Sequence | switch fluorescence ratio
131 | ATTTCCAAGG | 1.05
132 | ATTTCCTCAA | 1.14
133 | ATTTCCTCGT | 1.11
134 | ATTTCGACGA | 1.04
135 | ATTTCGCTG | 1.03
136 | ATTTCGGAA | 1.05
137 | ATTTCTCCG | 1.81
138 | ATTTCTCCTC | 1.03
139 | ATTTCTGGCC | 0.999
140 | ATTTCTTACG | 1.01
141 | ATTTGACAG | 1.11
142 | ATTTGACCCG | 1.14
143 | ATTTGAGTG | 1.02
144 | ATTTGCCAAG | 0.997
145 | ATTTGCGAAG | 0.996
146 | ATTTGCGGTC | 1.01
147 | ATTTGCGTCC | 0.998
148 | ATTTGCTCAA | 0.966
149 | ATTTGGAAAC | 1.04
150 | ATTTGGAGCG | 1.04
151 | ATTTGTATAA | 0.943
152 | ATTTTACTTT | 1.01
153 | ATTTTATCTG | 0.973
154 | ATTTTCACCG | 1.05
155 | ATTTTCCATG | 0.985
156 | ATTTTCGTAT | 0.98

Row | Sequence | switch fluorescence ratio
157 | ATTTTGCGA | 0.966
158 | CAAAAAATCT | 0.993
159 | CAAAAACG | 1.06
160 | CAAAAGCCTC | 0.971
161 | CAAAATAAGG | 1.01
162 | CAAAATTCAG | 1.02
163 | CAAAATTTCT | 1
164 | CAAACCGTAA | 1.43
165 | CAAACGTCTT | 1.03
166 | CAAACTACCG | 1.01
167 | CAAAGACTGA | 0.972
168 | CAAAGCAAGC | 3.84
169 | CAAAGCCATT | 0.986
170 | CAAAGGACCC | 1.04
171 | CAAAGGCACG | 1.05
172 | CAAAGGGGG | 1.02
173 | CAAAGTAACG | 1.01
174 | CAAAGTATGC | 1.05
175 | CAAAGTATTG | 0.982
176 | CAAAGTGGCT | 0.958
177 | CAAAGTGGGG | 0.995
178 | CAAATACTCT | 1.17
179 | CAAATATCTG | 0.949
180 | CAAATCGAAA | 1
181 | CAAATCTTCT | 1.13
182 | CAAATTCCGT | 0.992

Row | Sequence | switch fluorescence ratio
183 | CAAATTTTTC | 1.02
184 | CAACAAGAAA | 0.949
185 | CAACAATGGC | 1.01
186 | CAACAATGGT | 1.2
187 | CAACAATTTT | 0.979
188 | CAACACACCC | 1.38
189 | CAACACCGCT | 1.18
190 | CAACAGGTAA | 1.01
191 | CAACCATTAT | 1.01
192 | CAACCGACGG | 1.05
193 | CAACCGCACT | 5.33
194 | CAACCGGCCT | 1.35
195 | CAACGCCGGG | 0.976
196 | CAACGCTATG | 1.22
197 | CAACGCTGCC | 2.01
198 | CAACTAATTG | 0.98
199 | CAACTCTTT | 1.04
200 | CAACTGACGG | 1.32
201 | CAACTGAGGC | 1.01
